Enrichment ratio data for 153 variants are collected here from a collection of fitness landscapes (doi:10.1126/science.1257360).

The list shows a part of the results.

To fix the notation:
B1: PhoQ; a variant is named by its letters at X, in order, P23837 (parent)
chain: MKKLLRLFFPLSLRVRFLLATAAVVLVLSLAYGMVALIGYSVSFDKTTFRLLRGESNLFYTLAKWENNKLHVELPENIDKQSPTMTLIYDENGQLLWAQRDVPWLMKMIQPDWLKSNGFHEIEADVNDTSLLLSGDHSIQQQLQEVREDDDDAEMTHSVAVNVYPATSRMPKLTIVVVDTIPVELKSSYMVWSWFIYVLSANLLLVIPLLWVAAWWSLRPIEALAKEVRELEEHNRELLNPATTRELTSLVRNLNRLLKSERERYDKYRTTLTDLTHSLKTPLXXLQXXLRSLRSEKMSVSDAEPVMLEQISRISQQIGYYLHRASMRGGTLLSRELHPVAPLLDNLTSALNKVYQRKGVNISLDISPEISFVGEQNDFVEVMGNVLDNACKYCLEFVEISARQTDEHLYIVVEDDGPGIPLSKREVIFDRGQRVDTLRPGQGVGLAVAREITEQYEGKIVAGESMLGGARMEVIFGRQHSAPKDE

In the assay the parent is B1. Briefly: enrichment ratio after two sorts for PhoP signalling (ratio (wild type AVST 3.29)); higher = more functional. The following applies: with PhoP (E. coli).
In the case of YIPW, the enrichment ratio was at most 0.25.
The figure for GPGD is at most 0.25; for KNDK it is at most 0.25.
On to RPWE, for which the enrichment ratio was at most 0.25.
The value for KELT was at most 0.25.
On to DPRV, for which the enrichment ratio is at most 0.25.
The value for VQLV was 1.23; that for KVYM was at most 0.25; that for PDSS was at most 0.25.
The value for IPYI was at most 0.25.
Take WFYV: the enrichment ratio was at most 0.25.
The value for ACLP was 2.02; that for MGTP was at most 0.25; that for YGLH was 5.47.
Turning to LATY, the enrichment ratio is at most 0.25.
The value for QIPV was at most 0.25; that for EQCL was at most 0.25; that for YSSY was at most 0.25.
The figure for RYQW is at most 0.25; for KGRS it is at most 0.25; for FRWC it is at most 0.25.
The figure for LENP is at most 0.25; for MPHN it is at most 0.25; for LDEE it is at most 0.25.
In the case of DNVS, the enrichment ratio is at most 0.25.
The figure for AYEN is at most 0.25; for DHEQ it is at most 0.25; for DDPY it is at most 0.25.
As for VTHH, the enrichment ratio is at most 0.25.
The value for RPCA was at most 0.25; that for AKHL was at most 0.25.
The value for WENP was at most 0.25; that for KNTW was at most 0.25; that for FGNK was at most 0.25.
For GNLY, the enrichment ratio amounted to 3.04.
The value for HQWY was at most 0.25.
The value for ACID was at most 0.25.
As for VCAM, the enrichment ratio was 5.59.
The figure for WADP is at most 0.25; for YKLN it is at most 0.25.
TMYQ: the enrichment ratio amounted to 5.7.
The value for MDFP was at most 0.25.
The figure for VTTE is at most 0.25; for SSWF it is at most 0.25.
The value for QGSV was 5.34; that for TQQK was at most 0.25; that for LHLQ was at most 0.25.
On to VISV, for which the enrichment ratio was at most 0.25.
For VCCL, the enrichment ratio amounted to 2.8.
The value for VGRV was at most 0.25.
The figure for FTQV is at most 0.25.
The value for QLIF was at most 0.25; that for YNMK was at most 0.25.
Turning to IGVD, the enrichment ratio is at most 0.25.
In the case of WMII, the enrichment ratio was at most 0.25.
The value for GKIP was at most 0.25; that for SMNH was 2.63; that for PWQR was at most 0.25.
The figure for TEKH is at most 0.25.
The figure for QCVK is at most 0.25; for WEFT it is at most 0.25.
On to ENML, for which the enrichment ratio was at most 0.25.
QIFI: the enrichment ratio is at most 0.25.
The value for ITWW was at most 0.25; that for DKPT was at most 0.25; that for FNVV was at most 0.25.
The value for LYLL was at most 0.25; that for TGVS was 4.39.
The figure for HKGL is at most 0.25; for MQIH it is at most 0.25.
For the variant TTSR, the enrichment ratio is at most 0.25.
The value for MACY was at most 0.25; that for NAGQ was at most 0.25; that for QLMI was at most 0.25.
With ENVT, the enrichment ratio was at most 0.25.
The value for NCKR was at most 0.25; that for VMWF was at most 0.25; that for IVHC was at most 0.25.
The value for QAPS was at most 0.25; that for LFLK was at most 0.25; that for MKGT was at most 0.25.
In the case of LPGC, the enrichment ratio was at most 0.25.
The figure for PLAQ is at most 0.25; for AYPI it is at most 0.25; for FLVD it is at most 0.25.
For the variant KNWW, the enrichment ratio is at most 0.25.
Take HDIL: the enrichment ratio amounted to 0.461.
The value for DQQC was at most 0.25; that for KVGN was at most 0.25.
The figure for LYNN is at most 0.25; for SRRH it is at most 0.25.
With TKVT, the enrichment ratio came to 11.1.
The figure for DRGS is at most 0.25; for FLNK it is at most 0.25; for EHLC it is at most 0.25.
The figure for MHSY is at most 0.25; for FPNG it is at most 0.25.
The figure for WKHR is at most 0.25.
For WTSL, the enrichment ratio was at most 0.25.
The figure for PTLK is at most 0.25.
For MGQD, the enrichment ratio is at most 0.25.
For the variant GCPT, the enrichment ratio is at most 0.25.
Regarding KPAG, the enrichment ratio is at most 0.25.
The figure for WYSM is at most 0.25.
The figure for WPRL is at most 0.25.
As for TRYV, the enrichment ratio is at most 0.25.
For PPTE, the enrichment ratio was at most 0.25.
The figure for NVLD is at most 0.25.
The value for WDYG was at most 0.25; that for SKID was at most 0.25.
For the variant DRNY, the enrichment ratio was at most 0.25.
The value for FEQE was at most 0.25; that for DYMG was at most 0.25.
The value for SACD was at most 0.25; that for TRHD was at most 0.25.
The value for YENC was at most 0.25; that for IPHT was at most 0.25.
Consider EMFP, for which the enrichment ratio was at most 0.25.
The value for SEEI was at most 0.25; that for SRQR was at most 0.25; that for HARG was at most 0.25.
The figure for LSKF is at most 0.25.
The figure for FNSN is at most 0.25; for MENE it is at most 0.25; for AETE it is 8.78.
For PEQP, the enrichment ratio is at most 0.25.
The figure for VNWL is at most 0.25.
Turning to FNVI, the enrichment ratio was at most 0.25.
The figure for SDIQ is 6.24; for LSCK it is at most 0.25; for LHLL it is at most 0.25.
The figure for ASGM is 22.7; for GDLQ it is at most 0.25.
The value for MQAL was 0.591.
Consider LCFR, for which the enrichment ratio is at most 0.25.
For EDSF, the enrichment ratio was at most 0.25.
The figure for NGPM is at most 0.25; for QIGI it is at most 0.25; for NMRC it is at most 0.25.
In the case of EGMC, the enrichment ratio is at most 0.25.
With NYAH, the enrichment ratio was at most 0.25.
The value for YYAW was at most 0.25; that for HMTK was at most 0.25; that for SQFR was at most 0.25.
The value for SKRD was at most 0.25.
The value for FHIA was at most 0.25; that for NHLD was at most 0.25.
YNVH: the enrichment ratio was at most 0.25.
The figure for LPYD is at most 0.25.
The figure for TETS is 13.7; for IYRI it is at most 0.25; for QFII it is at most 0.25.
The figure for PCMK is at most 0.25.
